Results: ChEMBL document CHEMBL4888484, “Replenishing the malaria drug discovery pipeline: Screening and hit evaluation of the MMV Hit Generation Library 1 (HGL1) against asexual blood stage Plasmodium falciparum ,using a nano luciferase reporter read-out” (2022)
Out of some 150,000 compounds screened, about 540 (0.36%) showed an effect of 50% or more. The list shows a part of the results.

What follows are molecules tested on Plasmodium falciparum (assay: Primary screen in NF54 nanoGlo assay, in single point, at 2uM, 72h; a lower Z score goes with more inhibition). Conditions: timepoint 72 hour.
Assay type: functional, Erythrocyte

| Compound | % Inhibition [%] | Z score |
| --- | --- | --- |
| N#Cc1ccc(N2CCN(Cc3c[nH]cn3)C[C@H](O)C2)nc1 | -8 | 1.38 |
| Cc1ncsc1C(=O)NC[C@H]1CCCN1c1ncccn1 | -6 | 0.64 |
| Cc1nnc(-c2csc(S(=O)(=O)NCc3ccc4c(c3)OCO4)c2)o1 | 3 | -0.34 |
| CC[C@](C)(NC(=O)c1ccccn1)C(=O)NC1CCCC1 | -10 | 1.97 |
| COc1nc(C)cc(NCC2(n3cccn3)CC2)n1 | -4 | 0.78 |
| COC(=O)C1CCN2C(=O)N(c3ccc(C)nc3C)C(=O)C2C1 (configuration not stated) | -16 | 1.81 |
| COC(=O)N(C)CC(=O)Nc1cc(Cl)c(Cl)cc1Cl | -9 | 1.16 |
| COc1ccc(S(=O)(=O)N2CCN(C)C3(CCN(C)CC3)C2)cc1Cl | -25 | 2.54 |
| CCCC(CCC)C(=O)Nc1cc(Cl)ccc1OC | -1 | 0.14 |
| CC(C)CNC(=O)N1CCC[C@H](N(CCN2CCOCC2)S(C)(=O)=O)C1 | -4 | 0.55 |
| Cc1cc(-c2nnn(CC(=O)N3CCCC3)n2)ccc1F | -11 | 1.41 |
| O=C(Nc1ccnn1C1CCCC1)c1ccc(Br)o1 | -12 | 1.12 |
| O=C(NCc1c(O)cccc1F)N[C@H]1CC12CCOCC2 | -6 | 0.96 |
| CCN(C(=O)c1cc2sccc2[nH]1)[C@H]1COC[C@@H]1O | -11 | 1.6 |
| O=C(c1ccnc(N2CCn3nc(CO)cc3C2)c1)N1CCOCC1 | -26 | 2.26 |
| COC(=O)CNC(=O)CCN(C)[C@@H](C)c1ccccc1F | -16 | 3 |
| Cc1nc(C(=O)NCCc2ccccc2N2CCOCC2)c(C)o1 | 0 | -0.01 |
| C=C(C)CN(CC)C(=O)CN1CCO[C@@H](CN(C)C)C1 | -14 | 1.77 |
| FC(F)(F)c1cnc(N2CCN(CCc3cnccn3)CC2)s1 | -2 | 0.27 |
| Cc1nsc(NCc2ccc3c(c2)nc(C)n3C2CC2)n1 | -12 | 1.31 |
| COc1cccc(C2=Nc3cccnc3N(CC(=O)Nc3ccccc3Cl)C(=O)C2)c1 | 30 | -3.4 |
| Cc1ccccc1C(=O)N(CCC(=O)O)CC(C)C | 2 | -0.29 |

| Compound | % Inhibition [%] | Z score |
| --- | --- | --- |
| O=C1NCCCC[C@@H]1NC(=O)N(CC1CCCCC1)C1CC1 | -1 | 0.11 |
| Cc1cc(N(C)Cc2nc3c(o2)CCCC3)n[nH]1 | -10 | 1.72 |
| CC(C)OCCCNC(=O)c1ncccc1Br | -7 | 0.68 |
| O=C(Cc1cccs1)N[C@@H](Cc1cccc(F)c1)c1cccc(F)c1 | 1 | -0.16 |
| Cc1ccc(C)c(NC(=O)N2CCC[C@H](N(CCN3CCCC3)C(=O)C3CCC3)C2)c1 | 0 | 0.02 |
| CCCC[C@H]1C(=O)N(C)CCN1S(=O)(=O)c1cc(-c2cnc(C)o2)ccc1C | -3 | 0.51 |
| O=C(Cn1ccnc1)N1CCC(c2nc3c(s2)CCC3)CC1 | -2 | 0.31 |
| N#Cc1ccc(O)c(NC(=O)c2cccc3cc[nH]c23)c1 | 43 | -3.9 |
| Clc1ccc2nc(-c3ccccn3)nc(-c3ccccc3)c2c1 | 8 | -1.03 |
| O=C(c1ccc[nH]1)N1CC[C@H]2[C@H](CCC(=O)N2CCc2c[nH]cn2)C1 | -3 | 0.66 |
| O=C(Nc1ccc(Cc2ccccc2)cc1)N1C[C@H](c2ccccc2)C(c2ccc(Cl)cc2)=N1 | -31 | 3.62 |
| Cc1c(C(=O)NS(=O)(=O)C2C[C@@H]3CC[C@H]2C3)nnn1-c1cnn(C)c1 (some centres not stated) | -1 | 0.22 |
| CN1CCC(N2CCOC[C@H]2c2nc(-c3ccccc3)c[nH]2)CC1 | 18 | -2.08 |
| CC(C)c1nnc(CN2CCCN(S(=O)(=O)N(C)C)CC2)s1 | -3 | 0.4 |
| Cc1ccc(C(=O)N2CCC3(CC2)C[C@@H](O)CCO3)cc1 | -6 | 0.98 |
| COCC(=O)Nc1cc(C(=O)N2CCC(Oc3ccccc3F)CC2)c2c(c1)nc(C1CCC1)n2C | -10 | 1.87 |
| CC(C)[C@H](NC(=O)NCc1ccccc1)C(=O)N1CCc2sccc2C1 | -21 | 2.77 |
| CCN(C(=O)c1cc(O)n(C)n1)[C@H]1CCCc2cccnc21 | -2 | 0.32 |
| CC(C)C[C@@H](CO)N(C)C(=O)c1cn2ccnc2s1 | 3 | -0.69 |
| CCc1nc(CN2C(=O)N[C@](C)(c3ccc(C(N)=O)cc3)C2=O)no1 | -5 | 1.01 |
| CC(C)n1cc2cc(C(=O)NCCc3ccncc3)sc2c1 | 0 | -0.08 |
| CC(C)c1ccc(N2C(=O)[C@H](CC(=O)NCc3cccnc3)N=C2O)cc1 | -8 | 1.08 |

| Compound | % Inhibition [%] | Z score |
| --- | --- | --- |
| CN(Cc1ncon1)C(=O)c1ccc2c(c1)OCC(=O)N2 | -8 | 0.76 |
| CN(C)S(=O)(=O)N1CCC(CCc2nc(C3CCOCC3)no2)CC1 | -6 | 0.87 |
| COc1ccc(CC(=O)N2CCN(c3nc(C)cc(N4CCCC4)n3)CC2)cc1 | -7 | 1.39 |
| CCOC1CC(O)(CNc2nc(OC)ncc2Cl)C1(C)C (configuration not stated) | 0 | -0.06 |
| CCC(C)C(OC)C(=O)Nc1ccc(C)nc1O (configuration not stated) | -8 | 1.34 |
| Cc1ccccc1C(=O)Nc1ccc2c(n1)CCC2 | -15 | 2.52 |
| CC1CCCC(Cn2cnc(C#N)c2C#N)C1 (configuration not stated) | -3 | 0.41 |
| Cc1ccc(CN(Cc2ccc(F)cc2)C(=O)CN(C(=O)Nc2ccccc2)C2CC2)o1 | -2 | 0.42 |
| CCc1ccc2occ(Cc3ncnn3CCO)c2c1 | -8 | 1.51 |
| CC(C)NS(=O)(=O)N1CCC(C(=O)N(Cc2ccccc2)C2CC2)CC1 | -8 | 1.24 |
| CN1CCc2ncnc(NCc3cccc(-c4ccccn4)n3)c2C1 | -8 | 1.68 |
| O=C(Nc1ccccc1C(=O)N1CCCCC1)c1ccco1 | -13 | 1.73 |
| CCCN1CCN(C(=O)c2cc(-c3ccccc3)n[nH]2)[C@H]2CS(=O)(=O)C[C@H]21 | 6 | -0.8 |
| CCc1nnc2c(NCCCN3CCN(c4cccc(Cl)c4)CC3)nc3ccccc3n12 | -9 | 1.43 |
| CCOC(=O)c1cnn(-c2nc3ccccc3[nH]2)c1CN1C[C@@H](C)O[C@@H](C)C1 | -3 | 0.39 |
| O=C(Cn1c(C(=O)NCc2ccc(F)cc2F)cccc1=O)NCc1ccco1 | 0 | -0.05 |
| CCCn1cc(CNC(=O)N2CCN(c3ccccc3)C(=O)[C@@H]2C)cn1 | -11 | 1.31 |
| O=C(CN1C(=O)COc2ccc(S(=O)(=O)N3CCCC3)cc21)N1CCCCCC1 | 3 | -0.53 |
| Cc1cc(C)cc(CCNC(=O)C2([C@]3(O)CCCNC3)CCC2)c1 | -2 | 0.45 |
| O=C(CCn1cnnn1)N1CCC2(CCC(=O)N(CCc3cccnc3)C2)CC1 | 2 | -0.41 |
| CC(NC(=O)c1ccoc1)C(=O)N1CC2C(C1)C2(C)C (configuration not stated) | -13 | 1.06 |
| O=C(NCc1nc(-c2cc[nH]c(=O)c2)no1)c1ccccn1 | -6 | 1.06 |

| Compound | % Inhibition [%] | Z score |
| --- | --- | --- |
| C1CCC2(C1)CCC(CNC1CCCC13CCOCC3)O2 (configuration not stated) | -9 | 0.79 |
| O=C(NC[C@H]1CCCC1(F)F)c1ccoc1 | -8 | 1.59 |
| COC(=O)[C@@H](C)CN(Cc1ccccc1)C(=O)c1oc(C)nc1C | 6 | -0.64 |
| COc1ccccc1C(=O)Nc1cc(-c2ccco2)no1 | -19 | 3.32 |
| CC(C)(C)NC(=O)NCCc1csc(-n2cccn2)n1 | 3 | -0.51 |
| COc1ccc2c(c1)N(Cc1cnc3ncccn13)C[C@H](C)O2 | -10 | 1.03 |
| Cn1ncc(C(F)(F)F)c1C(=O)N1c2ccccc2C[C@@H]1CN | 4 | -0.87 |
| c1cncc(CNc2nnc(CC3CCCC3)o2)c1 | -9 | 1.04 |
| Cc1ccccc1Cn1nc(-c2ccc(F)cc2)c(C)c1-c1ccc(F)cc1 | 4 | -0.58 |
| Cc1cc(C)nc(NC(=O)c2ccc3c(c2)OCO3)n1 | -30 | 3.54 |
| O=C(OCC(F)(F)F)N1CCC[C@@H]1c1ccon1 | -1 | 0.25 |
| COCCN1C[C@]2(CCCN(C(=O)Cn3ccccc3=O)C2)CCC1=O | -15 | 2.05 |
| Cc1nc(-c2ncc(C(=O)N(C)Cc3snnc3C)c(O)n2)cs1 | -1 | 0.2 |
| CCCc1nsc(NC(=O)Cc2ccsc2)n1 | -47 | 5.54 |
| Cc1cccc(Cc2c(C)nc(C3CC3)nc2N2CCN(S(C)(=O)=O)CC2)c1 | -6 | 0.99 |
| Cc1nc2ccccc2n1CCNC1CCCC1Cc1cnn(C)c1 (configuration not stated) | -3 | 0.45 |
| O=C(COc1ccccc1Cl)Nc1ccc(C2(c3ccc(NC(=O)COc4ccccc4Cl)cc3)c3ccccc3-c3ccccc32)cc1 | 38 | -1.02 |
| O[C@@H]1COCCN(c2ncnc3c2Cc2ccccc2OC3)C1 | 1 | -0.22 |
| Cc1cccc(-n2c(=O)n(Cc3ccccc3)c(=O)c3c2ncn3Cc2ccccc2F)c1 | -16 | 1.51 |
| O=C(NC[C@H]1CCCO1)C1CCN(C2CCN(C3Cc4ccccc4C3)CC2)CC1 | -6 | 1.18 |
